“And” between values parts separate entries of the source, which are not always exact repeats. Equal entries are not always repeated. The shares of active, inactive and inconclusive entries below differ from those in the screen. For part of these data: Where the call is inconclusive, the potency comes from a doubtful curve fit. The source made the active and inactive calls. Unless noted, calls follow the shape of the dose curve; as a rule, active = well fitted curve in the direction sought with a large enough effect in the repeat runs; inconclusive = weak or mixed curves; inactive = no such curve, though single readings can be large; an effect the other way counts as inactive or inconclusive.
What was measured:
[1] = qHTS assay to identify small molecule that activate the aryl hydrocarbon receptor (AhR) signaling pathway - cell viability counter screen (AID 743086); also: nearly all actives have a fitted effect of over 45% in size
How it was run: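 HepG2-AhR-luc (HG2L7.5c1) cells, 4000/well, treated 24 h at 37 C with compound; viability measured as CellTiter-Fluor fluorescence after 30 min in the same wells as the luciferase read.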

[2] = biological target: Peroxisome proliferator-activated receptor gamma (Homo sapiens) (UniProt P37231); assay: qHTS assay to identify small molecule agonists of the peroxisome proliferator-activated receptor gamma (PPARg) signaling pathway (AID 743094; active = well fitted activation curve with a large enough effect in the signal ratio in the repeat runs, not every such curve was filed as active; inconclusive = weak or mixed curves, or effect the other way; inactive = no such curve, though single readings can be large or run the other way; the % refers to the signal ratio; as to activation: % is scaled to controls: 0 for no effect and ±100 for the full control effect); details: HEK293H PPARg-UAS-bla, beta-lactamase FRET ratio, 17 h; activation: at 57 µM (top of the series) unless noted
UniProt P37231, sequence (P37231 whole entry, looked up): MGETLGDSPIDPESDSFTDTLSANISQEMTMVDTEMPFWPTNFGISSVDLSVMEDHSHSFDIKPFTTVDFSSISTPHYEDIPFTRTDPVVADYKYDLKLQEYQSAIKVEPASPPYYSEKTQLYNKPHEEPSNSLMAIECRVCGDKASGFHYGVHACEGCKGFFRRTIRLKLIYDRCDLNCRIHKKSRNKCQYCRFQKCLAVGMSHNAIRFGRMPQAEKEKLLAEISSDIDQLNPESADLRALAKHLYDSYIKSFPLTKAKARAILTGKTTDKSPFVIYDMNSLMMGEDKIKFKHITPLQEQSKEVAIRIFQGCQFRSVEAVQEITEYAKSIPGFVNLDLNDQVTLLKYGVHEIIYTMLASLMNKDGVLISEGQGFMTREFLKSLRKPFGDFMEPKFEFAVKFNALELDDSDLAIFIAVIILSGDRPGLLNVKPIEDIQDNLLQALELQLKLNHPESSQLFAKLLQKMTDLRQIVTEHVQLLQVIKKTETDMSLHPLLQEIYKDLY
How it was run: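 Following 5 h plating at 37C, PPARg-bla HEK293H cells receive compound or DMSO for 17 h; fluorescence intensity is recorded after LiveBLAzer B/G loading for 1 h at room temperature.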

[3] = biological target: Peroxisome proliferator-activated receptor gamma (Homo sapiens) (UniProt P37231); assay: qHTS assay to identify small molecule antagonists of the peroxisome proliferator-activated receptor gamma (PPARg) signaling pathway (AID 743191; calls by dose curve; as to all read-outs here: nearly all actives have a fitted effect of over 30% in size; as to ratio activity, negative = inhibition: % is scaled to controls: 0 for no effect and ±100 for the full control effect); details: HEK293H PPARg-UAS-bla, beta-lactamase ratio, antagonist, 17 h; for Potency: ratio activity, negative = inhibition: at 62.6 µM (top of the series) unless noted
How it was run: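 GeneBLAzer PPARg UAS-bla HEK293H cells, 5 h post-plating, exposed to compounds 17 h at 37C. LiveBLAzer B/G FRET substrate added for 1 h at room temperature; beta-lactamase reporter read by fluorescence intensity.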

[4] = qHTS assay to identify small molecule antagonists of the peroxisome proliferator-activated receptor gamma (PPARg) signaling pathway - cell viability counter screen (AID 743194); details: PPARg-bla HEK293H viability, CellTiter-Glo luminescence, 17 h, co-treated with 50 nM rosiglitazone; activity change, negative = cytotoxicity: at 62.6 µM (top of the series) unless noted; also: nearly all actives have a fitted effect of over 55% in size
How it was run: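 Cytotoxicity counter screen in PPARg-bla HEK293H cells, same wells as reporter assay. Compounds plus 50 nM rosiglitazone (final) for 17 h at 37 C, then viability read by CellTiter-Glo luminescence.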

[5] = qHTS assay for small molecule agonists of the antioxidant response element (ARE) signaling pathway (AID 743202; active = well fitted activation curve with a large enough effect in the signal ratio in the repeat runs, not every such curve was filed as active; inconclusive = weak or mixed curves, or effect the other way; inactive = no such curve, though single readings can be large or run the other way; the % refers to the signal ratio); details: HepG2 ARE-bla reporter, beta-lactamase FRET, 16 h; activation: at 73.3 µM (top of the series) unless noted
How it was run: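 Agonist mode reporter screen: HepG2 cells with ARE-controlled beta-lactamase are incubated with test compounds for 16 h at 37 C, and beta-lactamase activity is measured as fluorescence of cleaved B/G FRET substrate.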

[6] = qHTS assay for small molecule agonists of the antioxidant response element (ARE) signaling pathway - cell viability counter screen (AID 743203; calls by dose curve; also: nearly all actives have a fitted effect of over 55% in size); details: ARE-bla HepG2 viability, CellTiter-Glo luminescence, 16 h; viability change, negative = cytotoxic: at 73.3 µM (top of the series)
How it was run: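 Compounds in DMSO were pinned onto ARE-bla HepG2 cells plated 5 hrs earlier at 2,000 cells/well. Sixteen hours later at 37C/5% CO2, CellTiter-Glo was added and luminescence measured after 30 min at room temperature.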

[7] = qHTS assay to identify small molecule agonists of the peroxisome proliferator-activated receptor delta (PPARd) signaling pathway - cell viability counter screen (AID 743211); details: PPARd-bla HEK293H viability, CellTiter-Glo luminescence, 17 h; activity change, negative = cytotoxicity: at 62.6 µM (top of the series); also: nearly all actives have a fitted effect of over 55% in size
How it was run: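 Tox21 library compounds, delivered in DMSO, were incubated 17 h with PPARd-bla HEK293H cells; cytotoxicity was taken from CellTiter-Glo luminescence read 30 min after reagent addition.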

[8] = biological target: Peroxisome proliferator-activated receptor delta (Homo sapiens) (UniProt Q03181); assay: qHTS assay to identify small molecule agonists of the peroxisome proliferator-activated receptor delta (PPARd) signaling pathway (AID 743212; calls by dose curve; as to activation: % is scaled to controls: 0 for no effect and ±100 for the full control effect); details: HEK293H PPARd-UAS-bla, beta-lactamase FRET ratio, 17 h; activation: at 62.6 µM (top of the series) unless noted
UniProt Q03181, sequence (Q03181 whole entry, looked up): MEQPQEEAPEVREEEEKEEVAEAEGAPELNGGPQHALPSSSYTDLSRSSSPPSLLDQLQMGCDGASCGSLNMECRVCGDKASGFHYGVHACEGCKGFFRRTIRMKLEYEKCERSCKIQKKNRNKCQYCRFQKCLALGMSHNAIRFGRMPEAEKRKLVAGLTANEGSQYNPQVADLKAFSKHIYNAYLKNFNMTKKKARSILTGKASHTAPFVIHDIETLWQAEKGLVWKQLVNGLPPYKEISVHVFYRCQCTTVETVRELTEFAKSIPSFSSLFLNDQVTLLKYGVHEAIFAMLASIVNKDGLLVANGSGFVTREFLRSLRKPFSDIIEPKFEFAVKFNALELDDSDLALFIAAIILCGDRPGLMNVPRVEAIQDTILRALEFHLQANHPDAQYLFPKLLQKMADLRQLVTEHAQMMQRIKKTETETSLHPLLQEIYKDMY
How it was run: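 Quantitative high-throughput agonist screen in a HEK293H beta-lactamase reporter line under UAS control. Compounds in DMSO, at 37 C. Fluorescence read after 2 h with FRET substrate at room temperature.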

[9] = qHTS assay to identify small molecule antagonists of the peroxisome proliferator-activated receptor delta (PPARd) signaling pathway - cell viability counter screen (AID 743213); details: PPARd-bla HEK293H viability, CellTiter-Glo luminescence, 17 h; viability change, negative = cytotoxic: at 62 µM (top of the series) unless noted; also: nearly all actives have a fitted effect of over 50% in size
How it was run: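 HEK293H cells with the PPARd UAS-bla reporter, co-treated 17 h at 37 C with compounds and L165041 (300 nM final), were lysed with CellTiter-Glo. Luminescence indicated viable cell content.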

[10] = biological target: Peroxisome proliferator-activated receptor delta (Homo sapiens) (UniProt Q03181); assay: qHTS assay to identify small molecule antagonists of the peroxisome proliferator-activated receptor delta (PPARd) signaling pathway (AID 743215; active = well fitted inhibition curve with a large enough effect in the signal ratio in the repeat runs, not every such curve was filed as active; inconclusive = weak or mixed curves, or effect the other way; inactive = no such curve, though single readings can be large or run the other way; the % refers to the signal ratio;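 also: cells stimulated with agonist L165041 at 300 nM final during compound exposure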; as to ratio activity, negative = inhibition: % is scaled to controls: 0 for no effect and ±100 for the full control effect); details: HEK293H PPARd-UAS-bla, beta-lactamase FRET ratio, antagonist, 17 h; ratio activity, negative = inhibition: at 62 µM (top of the series) unless noted
How it was run: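 With L165041 present at 300 nM final, compounds were incubated 17 h at 37 C on PPARd UAS-bla HEK293H cells. A FRET-based beta-lactamase substrate was then applied for 2 h at room temperature and fluorescence intensity recorded.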

[11] = biological target: Bile acid receptor (Homo sapiens) (UniProt Q96RI1); assay: qHTS assay to identify small molecule antagonists of the farnesoid-X-receptor (FXR) signaling pathway (AID 743217; active = well fitted inhibition curve with a large enough effect in the signal ratio in the repeat runs, not every such curve was filed as active; inconclusive = weak or mixed curves, or effect the other way; inactive = no such curve, though single readings can be large or run the other way; the % refers to the signal ratio); details: HEK293T FXR-UAS-bla, beta-lactamase ratio, CDCA-stimulated, 16 h
UniProt Q96RI1, sequence (Q96RI1 whole entry, looked up): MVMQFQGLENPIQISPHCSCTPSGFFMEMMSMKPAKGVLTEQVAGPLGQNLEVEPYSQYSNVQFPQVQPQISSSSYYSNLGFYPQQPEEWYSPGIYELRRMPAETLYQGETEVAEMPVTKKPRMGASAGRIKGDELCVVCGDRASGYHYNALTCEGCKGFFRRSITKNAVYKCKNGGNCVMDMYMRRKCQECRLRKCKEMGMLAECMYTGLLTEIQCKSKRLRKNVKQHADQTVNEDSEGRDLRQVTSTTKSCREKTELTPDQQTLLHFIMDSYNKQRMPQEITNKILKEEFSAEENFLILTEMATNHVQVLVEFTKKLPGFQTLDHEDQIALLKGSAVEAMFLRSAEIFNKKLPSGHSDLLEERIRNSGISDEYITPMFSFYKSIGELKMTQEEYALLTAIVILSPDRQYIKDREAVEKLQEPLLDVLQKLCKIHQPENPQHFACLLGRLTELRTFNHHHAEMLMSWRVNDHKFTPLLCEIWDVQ
How it was run: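 In this cell-based antagonist screen, inhibition of CDCA-driven (50 uM final) UAS-beta-lactamase expression in HEK 293T cells was measured by FRET fluorescence following 16 h compound exposure at 37 °C.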

[12] = qHTS assay to identify small molecule agonists of the farnesoid-X-receptor (FXR) signaling pathway - cell viability counter screen (AID 743218); details: FXR-bla HEK293T viability, CellTiter-Glo luminescence, 16 h; viability change, negative = cytotoxic: at 62.6 µM (top of the series) unless noted; also: nearly all actives have a fitted effect of over 45% in size
How it was run: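 After 16 h at 37 C with test compounds, FXR-bla HEK 293T cells were given LiveBLAzer B/G substrate for 2 h at RT and then CellTiter-Glo; luminescence was taken after 30 min.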

[13] = qHTS assay to identify small molecule antagonists of the farnesoid-X-receptor (FXR) signaling pathway - cell viability counter screen (AID 743221; active = well fitted cell-killing curve with a large enough effect in the repeat runs, not every such curve was filed as active; inconclusive = weak or mixed curves, or effect the other way; inactive = no such curve, though single readings can be large or run the other way; also: nearly all actives have a fitted effect of over 50% in size); details: FXR-bla HEK293T viability, CellTiter-Glo luminescence, 16 h; activity change, negative = cytotoxicity: at 62.6 µM (top of the series)
How it was run: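 Cytotoxicity is taken from ATP luminescence (CellTiter-Glo, 30 min, room temperature) in FXR-bla HEK 293T cells previously incubated 16 h at 37 C with compound and chenodeoxycholic acid at 50 uM final.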

[14] = biological target: Vitamin D3 receptor (Homo sapiens) (UniProt P11473); assay: qHTS assay to identify small molecule agonists of the vitamin D receptor (VDR) signaling pathway (AID 743222; calls by dose curve); details: HEK293T VDR-UAS-bla, beta-lactamase FRET ratio, 16 h; activation: at 63.5 µM (top of the series) unless noted
UniProt P11473, sequence (P11473 whole entry, looked up): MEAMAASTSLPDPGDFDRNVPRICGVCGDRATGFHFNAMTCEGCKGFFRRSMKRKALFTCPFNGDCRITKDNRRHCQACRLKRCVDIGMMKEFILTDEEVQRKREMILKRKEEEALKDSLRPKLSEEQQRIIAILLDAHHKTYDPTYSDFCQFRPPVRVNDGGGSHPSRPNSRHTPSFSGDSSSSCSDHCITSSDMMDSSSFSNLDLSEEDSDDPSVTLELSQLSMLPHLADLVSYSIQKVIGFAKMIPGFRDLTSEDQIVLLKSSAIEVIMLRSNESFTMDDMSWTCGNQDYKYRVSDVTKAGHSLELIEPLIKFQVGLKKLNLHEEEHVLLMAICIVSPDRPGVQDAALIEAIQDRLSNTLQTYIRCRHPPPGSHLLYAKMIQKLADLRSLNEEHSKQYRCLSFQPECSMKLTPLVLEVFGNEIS
How it was run: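 VDR-bla cells were seeded, left 4 h, treated with compounds in DMSO for 16 h, incubated 2 h at RT with B/G FRET substrate, and read for fluorescence.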

[15] = biological target: Vitamin D3 receptor (Homo sapiens) (UniProt P11473); assay: qHTS assay to identify small molecule antagonists of the vitamin D receptor (VDR) signaling pathway (AID 743223; active = well fitted inhibition curve with a large enough effect in the signal ratio in the repeat runs, not every such curve was filed as active; inconclusive = weak or mixed curves, or effect the other way; inactive = no such curve, though single readings can be large or run the other way; the % refers to the signal ratio); details: VDR-UAS-bla HEK293T, beta-lactamase FRET ratio, 16 h
How it was run: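 Quantitative HTS in VDR-bla reporter cells stimulated with 1alpha,25-dihydroxyvitamin D3, 3 nM final. Compound exposure 16 h, 37C, 5% CO2. Read-out: beta-lactamase FRET substrate fluorescence, 2 h RT.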

[16] = qHTS assay to identify small molecule agonists of the vitamin D receptor (VDR) signaling pathway - cell viability counter screen (AID 743224); details: VDR-bla HEK293T viability, CellTiter-Glo luminescence, 16 h; activity change, negative = cytotoxicity: at 62.6 µM (top of the series) unless noted; also: nearly all actives have a fitted effect of over 50% in size
How it was run: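 Here cell health was gauged by luminescent ATP detection (CellTiter-Glo, 30 min RT) in VDR-bla cells that had been incubated with test compounds for 16 h at 37C and 5% CO2.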

[17] = qHTS assay to identify small molecule antagonists of the vitamin D receptor (VDR) signaling pathway - cell viability counter screen (AID 743225); details: VDR-bla HEK293T viability, CellTiter-Glo luminescence, 16 h; viability change, negative = cytotoxic: at 61 µM (top of the series) unless noted; also: nearly all actives have a fitted effect of over 50% in size
How it was run: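 Same-well multiplex: following 16 h treatment of HEK 293T cells carrying a UAS-driven beta-lactamase reporter with compound and agonist (3 nM final), and a 2 h FRET substrate step, CellTiter-Glo was added and luminescence read after 30 min.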

[18] = biological target: Bile acid receptor (Homo sapiens) (UniProt Q96RI1); assay: qHTS assay to identify small molecule agonists of the farnesoid-X-receptor (FXR) signaling pathway (AID 743220; active = well fitted activation curve with a large enough effect in the signal ratio in the repeat runs, not every such curve was filed as active; inconclusive = weak or mixed curves, or effect the other way; the % refers to the signal ratio); details: HEK293T FXR-UAS-bla, beta-lactamase FRET ratio, 16 h; activation: at 62.6 µM (top of the series) unless noted
How it was run: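 Beta-lactamase reporter under UAS control in GeneBLAzer FXR HEK 293T cells (5000/well) measured with LiveBLAzer FRET substrate after 2 h at room temperature. Compound exposure lasted 16 h at 37C.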

[19] = qHTS assay for small molecule activators of the heat shock response signaling pathway (AID 743210; active = well fitted activation curve with a large enough effect in the signal ratio in the repeat runs, with a control signal flat, not every such curve was filed as active; inconclusive = weak or mixed curves; the % refers to the signal ratio); details: HeLa HSE-bla reporter, beta-lactamase ratio, 5 h; activation: at 62.6 µM (top of the series)
How it was run: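 Quantitative high-throughput format using an engineered HeLa line in which heat shock response elements drive beta-lactamase; after 5 h with compound, cells received a B/G FRET substrate and fluorescence was read.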

[20] = activity change, negative = inhibition: at 62.6 µM (top of the series) unless noted
[21] = activity change, negative = inhibition: at 61 µM (top of the series) unless noted
Potency is read from the fitted curve at half-maximal effect; tags tell the direction and shape of the fitted curve or compound fluorescence and quenching.

O=C1C=CC(=O)N1c1ccccc1
active: Potency [1] 61.1 µM | Potency [4] 13.8 µM | Potency [6] 12.2 µM | Potency [7] 15.5 µM | Potency [9] 15.5 µM | Potency [11, 20] 54.9 µM | Potency [12] 49 µM | Potency [15, 21] 12.3 µM | Potency [16] 11 µM | Potency [17] 15.5 µM
inconclusive: Potency [2] 61.6 µM [activator, single point] | Potency [3] 8.71 µM [rising, partial curve, poor fit] | Potency [5] 13.7 µM [falling, full curve] | activation [8] 27.1% | Potency [10] 38.9 µM [cytotoxic, partial curve, poor fit] | Potency [13] 54.9 µM [falling, single point] | Potency [14] 9.77 µM [falling, full curve]

Cc1ccc(S(=O)(=O)Oc2ccc(N=Nc3ccc(-c4ccc(N=Nc5c(O)ccc6cc(S(=O)(=O)O)cc(S(=O)(=O)O)c56)c(C)c4)cc3C)cc2)cc1
inconclusive: Potency [2] 27.6 µM [cytotoxic] | activation [2] -4.79% | ratio activity, negative = inhibition ([3]; at 62.6 µM (top of the series)) -6.64% | ratio activity, negative = inhibition ([3]; at 81.1 µM (top of the series)) 1.62% | Potency [4] 35.8 µM [cytotoxic, single point] | Potency [8] 55.2 µM [rising, single point] | ratio activity, negative = inhibition [10] -35.5% [at 80.4 µM] | activity change, negative = inhibition [11, 20] -36.5% [at 81.1 µM] | Potency [12] 49.2 µM [cytotoxic, partial curve, poor fit] | activity change, negative = inhibition [15, 21] 1.6% [at 78.8 µM]
active: Potency [1] 9.73 µM and 14.1 µM
inactive: activity change, negative = inhibition ([11]; at 62.6 µM (top of the series)) -2.95% | Potency [18] | activity change, negative = inhibition ([15]; at 61 µM (top of the series)) 3.32%

C/C=C/C(=O)Oc1c(CCCCCC(C)C)cc([N+](=O)[O-])cc1[N+](=O)[O-]
active: Potency [4] 6.16 µM | Potency [9] 24.5 µM | Potency [11, 20] 24.5 µM | Potency [13] 43.6 µM
inconclusive: Potency [1] 24.3 µM [falling, partial curve] | Potency [2] 54.9 µM [cytotoxic, single point] | Potency [3] 61.6 µM [cytotoxic, single point] | Potency [5] 68.6 µM [falling, single point] | Potency [19] 28.6 µM | Potency [7] 27.5 µM [cytotoxic, partial curve, poor fit] | Potency [8] 13.8 µM [rising, partial curve] | Potency [10] 21.9 µM | Potency [12] 17.4 µM [cytotoxic, full curve, poor fit] | Potency [18] 43.6 µM [cytotoxic, single point] | Potency [14] 15.5 µM | Potency [15, 21] 21.9 µM | Potency [17] 30.9 µM [cytotoxic, partial curve, poor fit]

From PubChem BioAssay (Tox21)
